Experimental data reported in the supplement of paper PMC4166925.
± gives the standard deviation of the averaged measurements. In all, about 33,000 sequences were measured (“E-score (dimensionless, -0.5 to 0.5)”: median about -0.049, highest 2% from about 0.37 on). The list shows a part of the results.

System: T1, PmTbr T-box DNA-binding domain (GST fusion)
T1 sequence: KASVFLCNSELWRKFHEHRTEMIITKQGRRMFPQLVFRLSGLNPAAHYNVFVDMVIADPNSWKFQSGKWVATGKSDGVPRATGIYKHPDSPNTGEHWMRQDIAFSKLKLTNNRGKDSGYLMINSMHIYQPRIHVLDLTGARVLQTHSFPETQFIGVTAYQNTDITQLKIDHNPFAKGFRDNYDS
Experiment: PBM E-score of 8-mer (E-score (dimensionless, -0.5 to 0.5)); Tbr is Tbrain of the sea star Patiria miniata (Pm) or the sea urchin Strongylocentrotus purpuratus (Sp); higher = stronger binding preference; most listed sequences are background and not binding sites
Details: the construct has about 5 more residues each side
Method in brief: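 Universal Agilent oligonucleotide arrays, made double-stranded by primer extension, were incubated with 200 nM GST-fused Tbr T-box DNA-binding domain in PBS (pH 7.5). The protein was expressed in BL21 E. coli at 20 °C and purified by glutathione affinity chromatography. After scanning and quantification, the Universal PBM Analysis Suite assigned an enrichment E-score to each ungapped 8-mer, averaged over duplicate arrays.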

| Sequence | PBM E-score of 8-mer |
| --- | --- |
| CTGAGCCC | -0.197 ± 0.048 |
| CTCTCTAA | -0.0792 ± 0.076 |
| ACTACACC | 0.224 ± 0.059 |
| AGGTCTCC | -0.227 ± 0.008 |
| CAATAGAA | -0.0235 ± 0.022 |
| ACTACGGG | -0.297 ± 0.033 |
| ACGTGCAC | -0.0259 ± 0.088 |
| GCCTGAGC | -0.0832 ± 0.032 |
| ATGGGGGG | -0.0992 ± 0.034 |
| GTGGCAAA | 0.333 ± 0.05 |
| GAGCATTA | -0.0505 ± 0.052 |
| AGGAACGC | -0.0922 ± 0.022 |
| CTTTCGGA | -0.0447 ± 0.021 |
| AACTTTAG | -0.175 ± 0.026 |
| AGGCGGAC | -0.152 ± 0.043 |
| CGACATGC | 0.0443 ± 0.046 |
| AGTTACGA | -0.0212 ± 0.0068 |
| AATACACG | 0.0556 ± 0.074 |
| CGAGGCGA | 0.26 ± 0.041 |
| AGCCCTCC | -0.16 ± 0.029 |
| GCTGAAGC | -0.0971 ± 0.0085 |
| AAGCTCAA | -0.193 ± 0.041 |
| CTCTCTTC | -0.155 ± 0.018 |
| GATCTTAC | -0.2 ± 0.051 |
| GATATTAA | -0.0978 ± 0.15 |

| Sequence | PBM E-score of 8-mer |
| --- | --- |
| AGCGAGCG | 0.114 ± 0.0037 |
| GACACGTC | 0.373 ± 0.021 |
| CTTCAAGA | -0.315 ± 0.061 |
| AGGCTTCG | -0.07 ± 0.03 |
| GATCTTAA | -0.0592 ± 0.0038 |
| ACGCTCCG | -0.0864 ± 0.038 |
| ACGAGATC | 0.0209 ± 0.041 |
| GCACGCGC | 0.168 ± 0.023 |
| AGTAATTG | -0.113 ± 0.088 |
| GTTAAGGA | -0.113 ± 0.048 |
| ACTGGGCT | -0.324 ± 0.035 |
| CTTGCCTA | -0.00632 ± 0.15 |
| AGACTGAC | -0.135 ± 0.032 |
| ATGTATAG | -0.0531 ± 0.039 |
| ATTGCCTA | -0.134 ± 0.077 |
| CGCGTCCC | 0.0728 ± 0.075 |
| CACCGGCA | 0.132 ± 0.001 |
| CTGCGTCA | 0.0224 ± 0.033 |
| AGTTCGTC | -0.0275 ± 0.018 |
| ACCGTGGC | -0.118 ± 0.095 |
| ATGATGAC | 0.0122 ± 0.024 |
| AATCAAAG | -0.202 ± 0.029 |
| CAGGGCTA | -0.0195 ± 0.019 |
| CTCAGCAA | 0.00353 ± 0.011 |
| AACACATG | 0.317 ± 0.013 |

| Sequence | PBM E-score of 8-mer |
| --- | --- |
| AATTAAAG | -0.254 ± 0.078 |
| AGTCTATA | -0.239 ± 0.057 |
| GACGGCGA | 0.0367 ± 0.081 |
| ACATTCCG | 0.0669 ± 0.011 |
| AACGAAGT | -0.0242 ± 0.039 |
| AAGCGAAA | -0.083 ± 0.07 |
| AGAACGCG | 0.0461 ± 0.013 |
| CCAGGAAA | -0.000415 ± 0.025 |
| CGCGCGAA | 0.3963 ± 0.00041 |
| ACCATCTG | 0.166 ± 0.007 |
| CCTTCCTA | -0.2081 ± 0.00062 |
| CCACTGTC | 0.0702 ± 0.13 |
| AGTTAAAG | -0.219 ± 0.12 |
| TGCTAGCA | 0.279 ± 0.025 |
| GCACACTA | 0.102 ± 0.027 |
| CGCTTCTA | -0.094 ± 0.061 |
| GCGTTTAA | -0.0514 ± 0.0086 |
| CCGCCTTC | 0.1559 ± 0.00055 |
| AAGTGCGA | 0.4835 ± 0.00061 |
| CCCGAAGG | -0.156 ± 0.021 |
| AACTGGAA | -0.3616 ± 0.002 |
| CGCCTTCA | 0.232 ± 0.047 |
| CCGCTTGC | 0.0475 ± 0.013 |
| CATCAATC | -0.188 ± 0.014 |
| AGTGTGTG | 0.338 ± 0.021 |

| Sequence | PBM E-score of 8-mer |
| --- | --- |
| GAGGAACC | -0.233 ± 0.12 |
| ACGCACCT | 0.364 ± 0.0093 |
| AATATGGA | -0.238 ± 0.025 |
| ATACAGCC | -0.344 ± 0.015 |
| CACCCCGC | 0.315 ± 0.013 |
| CATGGTTC | -0.00724 ± 0.04 |
| ATTGAGGC | -0.0962 ± 0.037 |
| CTTGTGAC | 0.291 ± 0.038 |
| ATGGACCG | -0.166 ± 0.069 |
| CCATACCA | -0.0888 ± 0.031 |
| CAGGTTCC | -0.0715 ± 0.045 |
| AGCTCAGA | -0.0299 ± 0.012 |
| ACTTGGCC | -0.000655 ± 0.0025 |
| GGTCTTAC | -0.337 ± 0.034 |
| GCGGTGTA | -0.136 ± 0.021 |
| AGATACCT | -0.178 ± 0.033 |
| CTAGAAAG | 0.0291 ± 0.051 |
| CGACTTTA | -0.0278 ± 0.13 |
| TGAATGAA | -0.333 ± 0.066 |
| GGGCAATA | -0.312 ± 0.0056 |
| ATATCAGC | -0.11 ± 0.024 |
| AACGTGTA | 0.156 ± 0.04 |
| AAAGACGG | -0.0971 ± 0.01 |
| CGGGCAGA | -0.0643 ± 0.047 |
| CACTCAAA | -0.0491 ± 0.075 |

| Sequence | PBM E-score of 8-mer |
| --- | --- |
| GAACAACA | 0.0956 ± 0.026 |
| AGAAGACG | -0.166 ± 0.091 |
| CTTTCTAC | -0.0511 ± 0.013 |
| CAGTGCGG | -0.0389 ± 0.1 |
| CTAAACTC | -0.176 ± 0.043 |
| TCATTACA | -0.0339 ± 0.0086 |
| ATTACATA | -0.16 ± 0.038 |
| AGATTACT | 0.0295 ± 0.0091 |
| CCACCTCG | 0.282 ± 0.0037 |
| ACTGCCTA | -0.156 ± 0.037 |
| AAAAGTAA | -0.176 ± 0.043 |
| AGGTGAAT | -0.00779 ± 0.047 |
| ACATCCAG | 0.0759 ± 0.017 |
| CCGAAAGG | -0.112 ± 0.0043 |
| CACGACGG | 0.0597 ± 0.069 |
| CGATAGCC | -0.117 ± 0.0063 |
| CCTGTTCG | 0.175 ± 0.002 |
| TGTATGAA | -0.183 ± 0.0043 |
| AACTTCAT | -0.0586 ± 0.031 |
| GGGATTCA | -0.1647 ± 0.0013 |
| CTCGTATA | -0.193 ± 0.069 |
| CCAATGCA | -0.209 ± 0.028 |
| AGAGAAAC | -0.157 ± 0.043 |
| CTGGGGCA | -0.0331 ± 0.031 |
| TAACGTCA | -0.0324 ± 0.0079 |

| Sequence | PBM E-score of 8-mer |
| --- | --- |
| AGAACCCC | -0.0878 ± 0.0035 |
| GTAAACGA | -0.148 ± 0.026 |
| AACCGGCC | -0.283 ± 0.012 |
| GTGACTGA | 0.263 ± 0.032 |
| GCGAGAAA | 0.356 ± 0.034 |
| AAGGCGCA | 0.165 ± 0.044 |
| CAATGAGG | -0.0925 ± 0.0019 |
| AGTGCTAT | 0.27 ± 0.0047 |
| CAATAGGC | -0.098 ± 0.051 |
| CTGTATGC | -0.0662 ± 0.0046 |
| GGGGGGAA | -0.175 ± 0.05 |
| GAAAGATC | -0.168 ± 0.036 |
| GAGGGGCA | -0.0547 ± 0.1 |
| GGAAGGTA | -0.0818 ± 0.022 |
| GAGTAACC | -0.257 ± 0.032 |
| ATGACTAC | -0.209 ± 0.0029 |
| CTAAGCGA | 0.0244 ± 0.053 |
| CCAGTAAG | 0.0168 ± 0.025 |
| GCTCCTAC | 0.0182 ± 0.0046 |
| GCGCAGCA | -0.194 ± 0.069 |
| AGCTAGGC | 0.00842 ± 0.052 |
| ACGTCCCA | 0.0569 ± 0.037 |
| CATGTCGC | 0.267 ± 0.011 |
| GGTACGGA | -0.104 ± 0.044 |
| ACTGCGAA | 0.315 ± 0.012 |

| Sequence | PBM E-score of 8-mer |
| --- | --- |
| AGGGTAGA | -0.12 ± 0.02 |
| ACAAGATA | -0.215 ± 0.052 |
| CGCCAACG | 0.2304 ± 0.00079 |
| AGCCCCCG | -0.145 ± 0.03 |
| GGACGGAA | -0.119 ± 0.043 |
| GGTTGCCA | 0.0405 ± 0.031 |
| GCAGCGAC | 0.0877 ± 0.0075 |
| ACTGGCGC | 0.122 ± 0.035 |
| CCCTTCTA | -0.00377 ± 0.028 |
| CGCGGACG | 0.17 ± 0.035 |
| GGCACAGA | -0.101 ± 0.023 |
| AGCCGCCT | -0.0512 ± 0.017 |
| ACTCTGAT | -0.211 ± 0.084 |
| ACGCTTTG | 0.137 ± 0.0018 |
| GCTATCCC | -0.125 ± 0.021 |
| AGCGTAAG | -0.0533 ± 0.049 |
| CAGCCTAG | 0.00532 ± 0.024 |
| AAGCAAAT | -0.216 ± 0.011 |
| ATCACGAG | 0.167 ± 0.054 |
| AGGACCAG | -0.286 ± 0.038 |
| ATCGTTGC | 0.0354 ± 0.0053 |
| ATTGAACG | -0.258 ± 0.015 |
